In all, about 2,300 compounds went through this assay and about 330 (14%) showed activity.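 Rule for the calls: active = median modified Z-score above 1.96; inactive = 1.96 or below.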 This is a selection; strong and weak results do not stand in their true shares.

In this assay the test system is HepG2 Srxn1-GFP reporter cells (+30 nM CDDO-Me). Put plainly: Srxn1-GFP intensity median modified Z-score relative to plate median; higher = stronger NRF2 / oxidative stress reporter activation, active = hit call of the paper. The note with it: 10 µM; exposure time: 24h. In short, it runs like this:
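Compound at 10 μM was applied with an NRF2 activator at 30 nM to HepG2 Srxn1-GFP BAC reporter cells for 24 h, in DMSO at no more than 0.1%, using three replicate 96-well plates seeded at 20,000 cells per well. Fixed, Hoechst-stained cells were imaged confocally and cytoplasmic GFP was scored for each cell, with images under 100 cells left out. The figure reported is the replicate median of the per-plate modified Z-score of GFP intensity. Scaling relied on 1.4826 × median absolute deviation.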
In the case of `CC1=CC2C(C(C)C)CCC(C)(O)C2CC1` (centres undefined) [euspeclibcmpd1360], the “Srxn1-GFP intensity median modified Z-score” value is inactive: -0.571.

Take `CCC1(CC)C(=O)CC=NC1=O` [euspeclibcmpd1119]: the “Srxn1-GFP intensity median modified Z-score” value is inactive: -0.354.

In the case of `NC(=O)c1ncn([C@@H]2O[C@H](CO)[C@@H](O)[C@H]2O)n1` [euspeclibcmpd267], the “Srxn1-GFP intensity median modified Z-score” value was inactive: 0.45.

Consider `CON=C(C(=O)NC1C(=O)N2C(C(=O)OCOC(=O)C(C)(C)C)=C(/C=C\c3scnc3C)CSC12)c1csc(=N)[nH]1` (centres undefined) [euspeclibcmpd753], for which the “Srxn1-GFP intensity median modified Z-score” value was inactive: 0.022.

In the case of `O=C(Nc1ccc(C(=O)O)c(O)c1)c1ccccc1` [euspeclibcmpd776], the “Srxn1-GFP intensity median modified Z-score” value was inactive: 0.292.

On to `CCCN1C(=O)/C(=C/c2ccc(-n3ccnc3)cc2)SC1=S`, for which the “Srxn1-GFP intensity median modified Z-score” value was active: 9.18.

As to `CO[C@@]1(NC(=O)Cc2cccs2)C(=O)N2C(C(=O)O)=C(COC(N)=O)CS[C@@H]21` [euspeclibcmpd2151], the “Srxn1-GFP intensity median modified Z-score” value was inactive: 0.193.

On to `CC1(C)CCC[C@]2(C)[C@H]3CC(=O)O[C@]3(C)CC[C@@H]12` [euspeclibcmpd1513], for which the “Srxn1-GFP intensity median modified Z-score” value was active: 11.6.

As to `CC(=O)c1ccc2c(c1)N(CCCN1CCC(CCO)CC1)c1ccccc1S2` [euspeclibcmpd2041], the “Srxn1-GFP intensity median modified Z-score” value is inactive: 1.15.

Regarding `CNCC[C@H](Oc1cccc2ccccc12)c1cccs1` [euspeclibcmpd986], the “Srxn1-GFP intensity median modified Z-score” value is inactive: 1.68.

Take `CN(C)CC(=O)OCC(=O)C(O)C(O)C(O)C(O)O` (centres undefined) [euspeclibcmpd2264]: the “Srxn1-GFP intensity median modified Z-score” value was inactive: -0.422.

`O=C(CCCN1CCC(O)(c2ccc(Br)cc2)CC1)c1ccc(F)cc1` [euspeclibcmpd889]: the “Srxn1-GFP intensity median modified Z-score” value is inactive: -0.326.

For `COc1cc2c(cc1OC)C(=O)C(CC1CCN(Cc3ccccc3)CC1)C2` (centres undefined) [euspeclibcmpd685], the “Srxn1-GFP intensity median modified Z-score” value is inactive: -0.76.

`CCCCC(CC)CN1CN(CC(CC)CCCC)CC(C)(N)C1` (centres undefined) [euspeclibcmpd1036]: the “Srxn1-GFP intensity median modified Z-score” value was active: 14.2.

As to `O=C1/C(=C/c2cccs2)CSC/C1=C/c1cccs1`, the “Srxn1-GFP intensity median modified Z-score” value is active: 13.2.

With `C=C1CC[C@H](O)C/C1=C/C=C1\CCCC2(C)C1CCC2C(C)CCCC(C)C` (some centres undefined) [euspeclibcmpd353], the “Srxn1-GFP intensity median modified Z-score” value is active: 2.95.

Take `Cc1[nH]c(=O)c(C#N)cc1-c1ccncc1` [euspeclibcmpd1241]: the “Srxn1-GFP intensity median modified Z-score” value is active: 2.87.

As to `Oc1ccc(Cl)c2c1CCC2` [euspeclibcmpd2398], the “Srxn1-GFP intensity median modified Z-score” value was inactive: -0.113.

As to `O=C(Nc1ccccc1)c1ccccc1O` [euspeclibcmpd8], the “Srxn1-GFP intensity median modified Z-score” value is inactive: 0.747.

`OC[C@H]1O[C@@H](Oc2ccc(Cl)cc2)[C@H](O)[C@@H](O)[C@H]1O`: the “Srxn1-GFP intensity median modified Z-score” value was inactive: 1.18.

Take `Cc1ncc([N+](=O)[O-])n1CC(O)CCl` (centres undefined) [euspeclibcmpd897]: the “Srxn1-GFP intensity median modified Z-score” value is inactive: 0.383.

As for `COc1ccc(C2C(=O)c3ccccc3C2=O)cc1` [euspeclibcmpd444], the “Srxn1-GFP intensity median modified Z-score” value is inactive: -0.0394.

For `Cc1cccc(C)c1NC(=O)C1CCCCN1C` (centres undefined) [euspeclibcmpd653], the “Srxn1-GFP intensity median modified Z-score” value is inactive: -0.302.

For `O=C(C=Cc1ccc(O)cc1)c1ccc(O)cc1O` [euspeclibcmpd1984], the “Srxn1-GFP intensity median modified Z-score” value is active: 13.1.

As for `Cc1c(C(N)=O)cc([N+](=O)[O-])cc1[N+](=O)[O-]` [euspeclibcmpd1108], the “Srxn1-GFP intensity median modified Z-score” value was inactive: -0.426.

`NC(=O)NC(=O)Cc1ccccc1` [euspeclibcmpd229]: the “Srxn1-GFP intensity median modified Z-score” value was inactive: -0.0115.

Consider `COc1ccc(C(=O)c2ccc(C)cc2)c(O)c1` [euspeclibcmpd1274], for which the “Srxn1-GFP intensity median modified Z-score” value is inactive: 0.455.

Take `CC(C)n1c(C=CC(O)CC(O)CC(=O)O)c(-c2ccc(F)cc2)c2ccccc21` (centres undefined) [euspeclibcmpd1968]: the “Srxn1-GFP intensity median modified Z-score” value was active: 3.35.

For the compound `COc1ccc(-c2cc(=O)c3c(O)cc(O[C@@H]4O[C@H](CO[C@@H]5O[C@@H](C)[C@H](O)[C@@H](O)[C@H]5O)[C@@H](O)[C@H](O)[C@H]4O)cc3o2)cc1O` [euspeclibcmpd1128], the “Srxn1-GFP intensity median modified Z-score” value was inactive: -0.0591.

For `NC[C@H]1O[C@H](O[C@H]2[C@H](O)[C@@H](O[C@H]3O[C@H](CO)[C@@H](O)[C@H](N)[C@H]3O)[C@H](N)C[C@@H]2N)[C@H](N)C[C@@H]1O` [euspeclibcmpd296], the “Srxn1-GFP intensity median modified Z-score” value was inactive: 0.0584.

Take `O=C(OCC(O)CO)c1ccccc1N=c1cc[nH]c2cc(Cl)ccc12` (centres undefined) [euspeclibcmpd1054]: the “Srxn1-GFP intensity median modified Z-score” value was active: 4.38.

Take `C[C@]12CCC3c4ccc(O)cc4CCC3C1C[C@@H](O)[C@@H]2O` (some centres undefined) [euspeclibcmpd2155]: the “Srxn1-GFP intensity median modified Z-score” value was inactive: -0.253.

Take `O=NN(CCCl)C(=O)NC1CCCCC1` [euspeclibcmpd457]: the “Srxn1-GFP intensity median modified Z-score” value is inactive: 0.482.

Turning to `Cc1cccc(CN2CCN(C(c3ccccc3)c3ccc(Cl)cc3)CC2)c1` (centres undefined) [euspeclibcmpd177], the “Srxn1-GFP intensity median modified Z-score” value was inactive: -0.119.

Consider `CCOC(=O)C1=C[C@]2(CC)CCCN3CCc4c(n1c1ccccc41)[C@@H]32` [euspeclibcmpd530], for which the “Srxn1-GFP intensity median modified Z-score” value was inactive: -0.339.

Regarding `CC(=O)c1c(O)c(C)c(O)c2c1OC1=CC(=O)C(C(C)=O)C(=O)C12C` (centres undefined) [euspeclibcmpd1449], the “Srxn1-GFP intensity median modified Z-score” value is active: 12.3.

With `O=C1OC2(c3ccc(O)cc3Oc3cc(O)ccc32)c2ccccc21` [euspeclibcmpd769], the “Srxn1-GFP intensity median modified Z-score” value was active: 2.16.

Take `O=C1CCc2cc(OCCCCc3nnnn3C3CCCCC3)ccc2N1` [euspeclibcmpd725]: the “Srxn1-GFP intensity median modified Z-score” value was inactive: 0.342.

For `COc1ccc2cc1Oc1ccc(cc1)C[C@H]1c3cc(c(OC)cc3CCN1C)Oc1c(OC)c(OC)cc3c1[C@H](C2)N(C)CC3` [euspeclibcmpd1476], the “Srxn1-GFP intensity median modified Z-score” value is active: 21.7.

For `CCOc1ccc(NC(N)=O)cc1`, the “Srxn1-GFP intensity median modified Z-score” value was inactive: 0.32.

Consider `CC(C)NCC(O)COc1cccc2ccccc12` (centres undefined) [euspeclibcmpd2079], for which the “Srxn1-GFP intensity median modified Z-score” value was inactive: -0.525.

As for `CN(C)N=Nc1[nH]cnc1C(N)=O` [euspeclibcmpd80], the “Srxn1-GFP intensity median modified Z-score” value is active: 60.7.

Turning to `CCC(C)n1ncn(-c2ccc(N3CCN(c4ccc(OC[C@H]5CO[C@](Cn6cncn6)(c6ccc(Cl)cc6Cl)O5)cc4)CC3)cc2)c1=O` (some centres undefined) [euspeclibcmpd951], the “Srxn1-GFP intensity median modified Z-score” value was active: 2.71.

Turning to `CCCCCCc1ccc(O)cc1O` [euspeclibcmpd2121], the “Srxn1-GFP intensity median modified Z-score” value was active: 3.73.

As for `O=C(O)c1cc(-c2ccc(F)cc2F)ccc1O` [euspeclibcmpd94], the “Srxn1-GFP intensity median modified Z-score” value was inactive: -0.024.

In the case of `CCCCNC(=O)NS(=O)(=O)c1ccc(C)cc1` [euspeclibcmpd298], the “Srxn1-GFP intensity median modified Z-score” value was inactive: 0.1.

In the case of `CC(C)(C)NC[C@H](O)c1ccc(O)c(CO)c1` [euspeclibcmpd2266], the “Srxn1-GFP intensity median modified Z-score” value was inactive: -0.495.

As for `CCn1cc(C(=O)O)c(=O)c2cnc(N3CCCC3)nc21` [euspeclibcmpd1150], the “Srxn1-GFP intensity median modified Z-score” value was inactive: 0.482.

Take `O=S(=O)(O)CCS` [euspeclibcmpd2094]: the “Srxn1-GFP intensity median modified Z-score” value was inactive: 0.0126.

For the compound `CCCCCCCCCCCCC[N+](C)(C)Cc1ccccc1` [euspeclibcmpd590], the “Srxn1-GFP intensity median modified Z-score” value is active: 3.29.

As for `CC(=O)Nc1ccc(CC(=O)O)cc1` [euspeclibcmpd1102], the “Srxn1-GFP intensity median modified Z-score” value was inactive: -0.255.

With `CNCCC(Oc1ccc(C(F)(F)F)cc1)c1ccccc1` (centres undefined) [euspeclibcmpd656], the “Srxn1-GFP intensity median modified Z-score” value is inactive: -1.5.

`COc1ccc(C(=O)/C=C/c2ccccc2)cc1` [euspeclibcmpd1565]: the “Srxn1-GFP intensity median modified Z-score” value is active: 26.7.

Regarding `CCN1CC(CCN2CCOCC2)C(c2ccccc2)(c2ccccc2)C1=O` (centres undefined) [euspeclibcmpd1315], the “Srxn1-GFP intensity median modified Z-score” value is inactive: -0.534.

Take `C=C1C(=O)O[C@@H]2C[C@@]3(C)CCC[C@H](C)C3=C[C@H]12` [euspeclibcmpd1482]: the “Srxn1-GFP intensity median modified Z-score” value was active: 10.2.

In the case of `C#C[C@]1(OC(C)=O)CCC2C3CCC4=C[C@@H](OC(C)=O)CCC4C3CC[C@@]21C` (some centres undefined) [euspeclibcmpd896], the “Srxn1-GFP intensity median modified Z-score” value is active: 2.28.

Regarding `CON=C(C(=O)NC1C(=O)N2C(C(=O)O)=C(COC(N)=O)CSC12)c1ccco1` (centres undefined) [euspeclibcmpd2072], the “Srxn1-GFP intensity median modified Z-score” value is inactive: -0.532.

Turning to `O=c1c2cc(O)c(O)cc2oc2cc(O)c(C3O[C@H](CO)[C@@H](O)[C@H](O)[C@H]3O)c(O)c12` (some centres undefined) [euspeclibcmpd1520], the “Srxn1-GFP intensity median modified Z-score” value is inactive: -0.904.

As for `CC(=O)OC1CCC2(C)C(=CC=C3C2CCC2(C)C3CCC2C(C)/C=C/C(C)C(C)C)C1(C)C` (centres undefined) [euspeclibcmpd1343], the “Srxn1-GFP intensity median modified Z-score” value was inactive: 1.93.

`NC(N)=O` [euspeclibcmpd318]: the “Srxn1-GFP intensity median modified Z-score” value is inactive: -0.0793.

In the case of `Cn1c([N+](=O)[O-])cnc1COC(N)=O` [euspeclibcmpd407], the “Srxn1-GFP intensity median modified Z-score” value was inactive: 0.117.

Turning to `O=C(CC(=O)c1ccccc1)c1ccccc1` [euspeclibcmpd1779], the “Srxn1-GFP intensity median modified Z-score” value was active: 2.2.

`COC(=O)C(N)CS` (centres undefined) [euspeclibcmpd1038]: the “Srxn1-GFP intensity median modified Z-score” value is inactive: 0.359.

As to `Nc1c(Br)cc(Br)cc1CNC1CCC(O)CC1` (centres undefined) [euspeclibcmpd1118], the “Srxn1-GFP intensity median modified Z-score” value is inactive: -0.575.

`CC(N)C12CC3CC(CC(C3)C1)C2` (centres undefined) [euspeclibcmpd797]: the “Srxn1-GFP intensity median modified Z-score” value is inactive: -0.0713.

For the compound `Cc1cc(O)c(C=O)c2c1C(=O)Oc1c(COC(=O)/C=C/C(=O)O)c(O)c(C(=O)O)c(C)c1O2` [euspeclibcmpd1417], the “Srxn1-GFP intensity median modified Z-score” value is inactive: -0.65.

As to `OC(CCN1CCCCC1)(c1ccccc1)C1CCCCC1` (centres undefined) [euspeclibcmpd307], the “Srxn1-GFP intensity median modified Z-score” value was inactive: 0.287.

Consider `NCCCC(N)C(=O)O` (centres undefined) [euspeclibcmpd2233], for which the “Srxn1-GFP intensity median modified Z-score” value was inactive: -0.13.

For `C[C@H]1[C@H]2CCC3C4CC=C5C[C@@H](N(C)C)CC[C@]5(C)C4CC[C@@]32CN1C` (some centres undefined) [euspeclibcmpd1801], the “Srxn1-GFP intensity median modified Z-score” value is inactive: -0.317.

Take `COc1ccc2[nH]c([S+]([O-])Cc3ncc(C)c(OC)c3C)nc2c1` (centres undefined) [euspeclibcmpd846]: the “Srxn1-GFP intensity median modified Z-score” value was inactive: -0.3.

As to `O=S(=O)(O)CCCS(=O)(=O)O` [euspeclibcmpd2416], the “Srxn1-GFP intensity median modified Z-score” value was inactive: -0.356.

As to `CC(=O)Nc1ccc(O)cc1` [euspeclibcmpd12], the “Srxn1-GFP intensity median modified Z-score” value is inactive: -0.102.

With `CC(=O)Oc1c(C)c(C)c2c(c1C)CCC(C)(CCCC(C)CCCC(C)CCCC(C)C)O2` (centres undefined) [euspeclibcmpd451], the “Srxn1-GFP intensity median modified Z-score” value was inactive: -0.839.

As to `O=C(O)c1cc(O)c(=O)c2c(O)c(O)ccc2c1` [euspeclibcmpd1973], the “Srxn1-GFP intensity median modified Z-score” value was inactive: -1.01.
